ChEMBL document CHEMBL4888484, “Replenishing the malaria drug discovery pipeline: Screening and hit evaluation of the MMV Hit Generation Library 1 (HGL1) against asexual blood stage Plasmodium falciparum ,using a nano luciferase reporter read-out” (2022)
Out of some 150,000 compounds screened, about 540 (0.36%) showed an effect of 50% or more. Some of the results follow.

These molecules were tested on Plasmodium falciparum (assay: Primary screen in NF54 nanoGlo assay, in single point, at 2uM, 72h; a lower Z score goes with more inhibition). Conditions: timepoint 72 hour.
Type: functional, Erythrocyte
With `O=C(O)c1cnn(-c2ncc3c(n2)-c2ccccc2CCC3)c1C1CC1` the “% Inhibition” value was -14% and the Z score was 2.34. With `Cc1onc(N)c1S(=O)(=O)NC1CCC(C(F)(F)F)CC1` (centres undefined) the “% Inhibition” value was 30% and the Z score was -3.37. In the case of `COc1cccc(-c2nnc(-c3sc4ccccc4c3Cl)o2)c1`, the “% Inhibition” value is reported as -6% and the Z score is reported as 0.99. `C=CCN1CC[C@H](N(C)C(=O)Nc2ccc(C3CCC3)cc2)C1=O` was tested, and the “% Inhibition” value was -5% and the Z score was 0.65. With `CC1(C)C(NC(=O)c2ccco2)C(C)(C)C1NC(=O)c1ccco1` (centres undefined) the “% Inhibition” value was -1% and the Z score was 0.09. `CCc1nccn1CC(=O)c1cccc(Cl)c1Cl` was tested, and the “% Inhibition” value was -1% and the Z score was 0.09. In the case of `Cn1cnn(CC(=O)N2CCCCC2)c1=O`, the “% Inhibition” value is reported as -4% and the Z score is reported as 0.42. For `CC(C)CC(C)OCCC(=O)N1CCOCC1C#N` (centres undefined), the “% Inhibition” value was -7% and the Z score was 1.04. For `CN1CCO[C@@H](CNCCc2ccccc2Cl)C1`, the “% Inhibition” value was 5% and the Z score was -0.73. `CCC(=O)N1CCN(C(=O)NC2CCC(CC)(CC)CC2)CC1` was tested, and the “% Inhibition” value was -8% and the Z score was 0.9. With `Cn1cnnc1C[C@H]1CCCN(C(=O)NC2CCCCC2)C1` the “% Inhibition” value was -7% and the Z score was 0.96. With `O=C(NC1CCCC1)c1cc2n(n1)CCCN(Cc1ccc(Cl)cc1)C2=O` the “% Inhibition” value was -14% and the Z score was 2.59. With `C=CCCc1ccccc1NC(=O)N1CCC2OCC(=O)NC2C1` (centres undefined) the “% Inhibition” value was -10% and the Z score was 1.8. In the case of `CCOC(=O)C1CCN(C(=O)COC(=O)C2CCN(S(=O)(=O)c3ccc(C)c(C)c3)CC2)CC1`, the “% Inhibition” value is reported as -2% and the Z score is reported as 0.22. `CC(C)NC(=O)N[C@H]1CCN2C(=O)c3cc(-c4ccccc4F)ccc3NC(=O)[C@@H]2C1` was tested, and the “% Inhibition” value was 4% and the Z score was -0.64. For `CCn1cncc1Cn1cnc(-c2ccccc2)c1-c1cccc(C)n1`, the “% Inhibition” value was -16% and the Z score was 2.1. For `CN1C(=O)Cc2cc(-c3csc(-c4ccccn4)n3)ccc21`, the “% Inhibition” value was -3% and the Z score was 0.27. With `CCCc1sc(C(=O)N(C)CC(N)=O)cc1CC` the “% Inhibition” value was -16% and the Z score was 2. `COc1ccc(CCN2C(=O)N[C@@H](CC(=O)Nc3cccc(NC(C)=O)c3)C2=O)cc1` was tested, and the “% Inhibition” value was 18% and the Z score was -2.31. For `CC1CN(C(=O)CC2CCCCC2)CCC1NC(=O)OC(C)(C)C` (centres undefined), the “% Inhibition” value was -2% and the Z score was 0.23. With `Clc1ccc(-c2cc3nnnn3c3ccccc23)cc1` the “% Inhibition” value was 0% and the Z score was -0.01. In the case of `CCN1CCn2c(nn(CC(=O)N[C@H]3CCc4ccccc43)c2=O)C1=O`, the “% Inhibition” value is reported as -7% and the Z score is reported as 0.75. With `CCC(NC(C)Cn1ncc2ccccc2c1=O)c1cnn(C)c1` (centres undefined) the “% Inhibition” value was 7% and the Z score was -0.69. For `COc1ncccc1CNC(=O)c1cc2c(s1)CCC2`, the “% Inhibition” value was -15% and the Z score was 2.7. In the case of `CC(C)c1ncc(-c2ccc(S(=O)(=O)Cl)cc2)o1`, the “% Inhibition” value is reported as -2% and the Z score is reported as 0.29. `CCCc1nc(N2CCCN(C(=O)Nc3ccc(C)cc3)CC2)c2c(-c3ccccc3)noc2n1` was tested, and the “% Inhibition” value was 25% and the Z score was -3.13. In the case of `CCCCNC(=O)N[C@@H](C)c1cn[nH]c1`, the “% Inhibition” value is reported as 0% and the Z score is reported as -0.03. `Cc1cc2c(=O)c(C(=O)c3ccncc3)cn(CC(=O)NC3CCCCC3)c2cc1F` was tested, and the “% Inhibition” value was -1% and the Z score was 0.12. With `CCn1nnc(NCc2ccnn2-c2ccccc2)n1` the “% Inhibition” value was -6% and the Z score was 1.01. `N#CCC(=O)N(Cc1ccncc1)C1CC1` was tested, and the “% Inhibition” value was 15% and the Z score was -1.79. With `O=C(NCc1ccccc1CN1CCCCCC1)c1cccc[n+]1[O-]` the “% Inhibition” value was 2% and the Z score was -0.33. With `NC(=O)c1coc(CNC(=O)[C@H]2CCCC(F)(F)C2)n1` the “% Inhibition” value was 2% and the Z score was -0.31. In the case of `Cc1nccc(NC(=O)N[C@@H](C)CCCO)c1Cl`, the “% Inhibition” value is reported as -6% and the Z score is reported as 0.81. In the case of `CCCCC(C)C(=O)NC(CO)C1CCCO1` (centres undefined), the “% Inhibition” value is reported as -6% and the Z score is reported as 0.74. For `CN(C)C(=O)c1cncc(N(C)CC(C)(C)CO)n1`, the “% Inhibition” value was -14% and the Z score was 1.42. With `COc1cc(=O)n(-c2ccccc2)cc1C(=O)N1CCC(n2nccn2)CC1` the “% Inhibition” value was -14% and the Z score was 1.56. `CCc1cnc(C)nc1N1CCC(n2nccc2NC(=O)C(C)(C)C)CC1` was tested, and the “% Inhibition” value was -5% and the Z score was 1.03. For `C[C@H](NC(=O)c1cc(C(C)(C)C)on1)c1nc[nH]n1`, the “% Inhibition” value was -11% and the Z score was 1.75. For `N#CCN1CCc2cc(C(=O)Nc3ccccc3)ccc21`, the “% Inhibition” value was 11% and the Z score was -2.23. In the case of `COc1cccc2[nH]cc(C(CC(=O)NC3CCS(=O)(=O)C3)c3ccc(Cl)cc3)c12` (centres undefined), the “% Inhibition” value is reported as -4% and the Z score is reported as 0.47. In the case of `COc1ccc(-c2cc(C(F)(F)F)on2)cc1S(=O)(=O)NCc1ccc(Br)cc1`, the “% Inhibition” value is reported as 0% and the Z score is reported as 0.01. `O=C(NCCc1ccc(F)cc1)[C@H]1NCC12CCOCC2` was tested, and the “% Inhibition” value was -20% and the Z score was 2.58. For `O=C(NC1=NN2C(=NC(c3ccccc3)=C[C@H]2c2ccccc2)N1)c1ccc(F)cc1`, the “% Inhibition” value was -1% and the Z score was 0.1. In the case of `CC(OCC(F)(F)F)C(=O)NC(C)c1cccs1` (centres undefined), the “% Inhibition” value is reported as 9% and the Z score is reported as -1.2. `Cc1ccc2[nH]c3c(c(=O)c2c1)CN(C(=O)C(F)(F)F)CC3` was tested, and the “% Inhibition” value was 13% and the Z score was -1.64. With `C[C@@H](C(=O)Nc1ncccn1)N1CC(C)(C)OC(C)(C)C1` the “% Inhibition” value was -7% and the Z score was 1.25. `COc1ccc(CN(C(=O)[C@H]2CCOC2)C(C)(C)C)c(OC)c1` was tested, and the “% Inhibition” value was -8% and the Z score was 1.5. With `Cc1[nH]c(=O)[nH]c(=O)c1S(=O)(=O)N1CCC(C(=O)NCCN2CCN(c3ccccc3)CC2)CC1` the “% Inhibition” value was -13% and the Z score was 2. For `O=C(NCCc1ccc(Cl)cc1)c1csc(C(=O)NC2CC2)n1`, the “% Inhibition” value was -10% and the Z score was 1.55. For `N#Cc1cc(C(=O)NS(=O)(=O)N2CCOCC2)ccc1N1CCCC1`, the “% Inhibition” value was -5% and the Z score was 0.63. With `Cc1ccccc1C(=N)Nc1nnn[nH]1` the “% Inhibition” value was -7% and the Z score was 0.76. For `CCN(c1cccc(Br)c1)S(C)(=O)=O`, the “% Inhibition” value was 1% and the Z score was -0.13. For `O=C(NCc1cncc(-c2ccoc2)c1)[C@@H]1CCCO1`, the “% Inhibition” value was 10% and the Z score was -1.23. With `O=C(NCCN1C(=O)COC1=O)c1ccc(F)cc1` the “% Inhibition” value was 17% and the Z score was -2.27. In the case of `O=C1N(Cc2ccc(F)c(F)c2)CCC[C@@]1(O)CNC1CCC1`, the “% Inhibition” value is reported as -8% and the Z score is reported as 1.2. For `OC[C@@]1(Cc2ccc(F)cc2)CCN(c2cc(OCC3CC3)ccn2)C1`, the “% Inhibition” value was -12% and the Z score was 2.19. For `CCc1ncc(NC(=O)N(CCN(C)C)C(C)C)cn1`, the “% Inhibition” value was -12% and the Z score was 1.18. `COc1ccccc1N1CCN(C(=O)c2nnn(-c3ccccc3Cl)c2-c2cccnc2)CC1` was tested, and the “% Inhibition” value was 50% and the Z score was -6.51. For `Cc1cnn(C[C@H]2CCCN2c2ncccc2C#N)c1`, the “% Inhibition” value was 12% and the Z score was -1.58. `Cc1nscc1C(=O)N[C@@H](CC(=O)O)Cc1cc(F)c(F)cc1F` was tested, and the “% Inhibition” value was 1% and the Z score was -0.22. `CC(=O)Nc1c(-c2ccccn2)nsc1C(=O)NC1CCCCC1` was tested, and the “% Inhibition” value was -1% and the Z score was 0.12. `COCC1(CNCc2ccc(C(=O)O)cc2)CCC1` was tested, and the “% Inhibition” value was -11% and the Z score was 2.29. For `Cc1ccc(NC(=O)c2cn(-c3cc(-c4noc(C5CC5)n4)ccc3C)nc2C)cc1C`, the “% Inhibition” value was -18% and the Z score was 2.13. For `Cn1c(=O)[nH]c(=O)c2cc(S(=O)(=O)N3CCCCC3)cnc21`, the “% Inhibition” value was -6% and the Z score was 1.12. `Cc1cccc(C(=O)NCCc2nnc3n2CCCC3)c1` was tested, and the “% Inhibition” value was -13% and the Z score was 1.8. With `Cc1nc(C)c(F)c(N[C@H]2CCCNC2=O)n1` the “% Inhibition” value was 5% and the Z score was -0.81. In the case of `Cc1cc(-c2c(-c3ccccc3)ncn2Cc2cccnc2)oc1C`, the “% Inhibition” value is reported as 9% and the Z score is reported as -1.83. In the case of `Cn1cc(C(=O)OCCc2ccc(F)cc2F)cn1`, the “% Inhibition” value is reported as -13% and the Z score is reported as 1.37. `CN(C)c1cncc(C(=O)NS(=O)(=O)C2C[C@@H]3CC[C@H]2C3)c1` (some centres undefined) was tested, and the “% Inhibition” value was 1% and the Z score was -0.17. `CC1CCN(C[C@@H](O)CNc2cc(C#N)ccn2)CC1` was tested, and the “% Inhibition” value was -2% and the Z score was 0.45. In the case of `COc1ccc(C)cc1N(C)C(=O)Cn1ccc2c(=O)n(C)c(=O)n(C)c21`, the “% Inhibition” value is reported as -11% and the Z score is reported as 1.08. For `CCCc1cc(C(=O)N(CC(=O)O)C2CCCCCC2)n(C)n1`, the “% Inhibition” value was -14% and the Z score was 1.39. In the case of `Cc1ccc(S(=O)(=O)N(C)c2cncc(C(=O)N[C@@H](C)CCc3ccccc3)c2)cc1`, the “% Inhibition” value is reported as -13% and the Z score is reported as 2.36. For `CCn1cc(CC(=O)OC[C@H]2COC(C)(C)O2)c2ccccc21`, the “% Inhibition” value was -12% and the Z score was 1.01. `O=C(NCC1(NC(=O)C2=CCCC2)CCOCC1)C1=CCCC1` was tested, and the “% Inhibition” value was -17% and the Z score was 1.97. For `CCc1oc(C(=O)N2CC[S@+]([O-])C(C)(C)C2)cc1C`, the “% Inhibition” value was -8% and the Z score was 1.07. With `Cc1ccc(NC(=O)c2ncoc2C(C)C)c(CN(C)C)c1` the “% Inhibition” value was -2% and the Z score was 0.34. With `CC1(C)CN(S(=O)(=O)c2cncc(F)c2)[C@@H]1c1cccs1` the “% Inhibition” value was -7% and the Z score was 0.7. With `Cc1csc[n+]1CC(=O)c1ccc(C(F)(F)F)cc1` the “% Inhibition” value was 29% and the Z score was -3.29. For `NC(=O)c1ccc(CNC(=O)C2CCCCCC2)o1`, the “% Inhibition” value was -4% and the Z score was 0.36. For `Cc1ccc(NC(=O)Cc2nnc(-c3cnccn3)o2)c(Cl)c1`, the “% Inhibition” value was -12% and the Z score was 1.25. With `CO[C@@H](CNc1nc(C)cc(C#N)n1)C(C)(C)C` the “% Inhibition” value was -16% and the Z score was 2.1. For `CC(C)Cc1ncc(NC(=O)N[C@@H]2CCCc3cccnc32)cn1`, the “% Inhibition” value was -8% and the Z score was 0.87. With `COc1cc(-c2nccn2[C@H]2CCCN(c3ncccn3)C2)cc2c1OCO2` the “% Inhibition” value was -19% and the Z score was 2.1. In the case of `CC(OCC(F)(F)F)C(=O)Nc1ccc(N(C)C(=O)C(C)OCC(F)(F)F)nc1` (centres undefined), the “% Inhibition” value is reported as -8% and the Z score is reported as 0.77. `O=S1(=O)CC=C(CNCc2ccccc2)C1` was tested, and the “% Inhibition” value was -18% and the Z score was 2.87. For `O=C(NCC1CC1)C1(NCc2ccc3cn[nH]c3c2)CCCC1`, the “% Inhibition” value was -7% and the Z score was 0.93.
